According to PubChem BioAssay AID686979 (National Center for Advancing Translational Sciences (NCATS), 2013):
Where “and” joins values, the source holds several entries; their conditions need not be identical. Equal entries are not always repeated. The whole screen tested about 420,000 compounds, of which about 50,000 (12%) were called active. The shares of active, inactive and inconclusive entries below differ from those in the screen. Calls follow the shape of the dose curve; as a rule, active = well fitted inhibition curve with a large enough effect; inconclusive = small, poorly fitted or top-dose-only effect; inactive = flat fitted curve, though single readings scatter. Potencies of inconclusive entries are doubtful fits and often do not repeat.

assay: qHTS for Inhibitors of human tyrosyl-DNA phosphodiesterase 1 (TDP1): qHTS in cells in presence of CPT; conditions: chicken DT40 Tdp1-/-;hTDP1 cells + 20 nM CPT, ATP luminescence, 48 h; activity change, negative = growth inhibition: at 46.2 µM (top of the series); also: nearly all actives have a fitted effect of over 55% in size
Method in brief: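 Chicken DT40 Tdp1-/- cells complemented with human TDP1, 400 cells/well, exposed to compounds plus 20 nM camptothecin for at least 48 h at 37 C; viability read as ATP content by CellTiter-Glo luminescence.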
% is scaled to controls: 0 for no effect and ±100 for the full control effect; potency is read from the fitted curve at half-maximal effect; tags tell the direction and shape of the fitted curve.

Row | SMILES | Potency | activity change, negative = growth inhibition
1 | Cc1ncoc1C(=O)Nc1ccc2c(c1)OCCO2 | inconclusive: 18.4 µM [inhibitor, partial curve, poor fit] | 
2 | Cc1ccc(S(=O)(=O)NN/C(=N/S(=O)(=O)c2ccccc2)c2ccccc2)cc1 |  | inconclusive: -11.6% [inhibitor]
3 | CCOC(=O)C1=C(C)NC(=S)NC1c1cccs1 (stereo not drawn) |  | inactive: 2.09%
4 | CCCCN1C(=O)C(CC(=O)NCc2cccc3ccccc23)CC(C(=O)N(C)C)=C1C (stereo not drawn) |  | inactive: -6.22%
5 | COc1ccc(/C=N/Nc2nnc(Cc3ccc(OC)c(OC)c3)c(=O)[nH]2)cc1 | active: 25.9 µM | 
6 | CCN(CC(=O)Nc1c(F)cccc1F)C(=O)c1ccc(-c2ccccc2)cc1 | inconclusive: 29.1 µM [inhibitor, single point] | 
7 | O=[N+]([O-])c1ccc(Oc2ccc(C(F)(F)F)cn2)cc1 |  | inactive: 4.87%
8 | CCN1C(=O)C2(c3ccccc31)c1c(oc3ccc(F)cc3c1=O)C(=O)N2CCCOC (stereo not drawn) | inconclusive: 6.51 µM [inhibitor, full curve, poor fit] | 
9 | COc1ccccc1NC(=O)CSC1CC(=O)N(c2ccc3c(c2)OCO3)C1=O (stereo not drawn) | active: 4.61 µM | 
10 | CC(C)Oc1ccc(CNC(=O)c2ccc(Cn3c(=O)c4cccn4c4cccnc43)cc2)cc1 | inconclusive: 0.731 µM [inhibitor, full curve] | 
11 | Cc1cc(C(=O)OCC(=O)c2ccc3c(c2)NC(=O)CO3)c2ccccc2n1 |  | inactive: -2.44%
12 | CC(C)(C)OC(=O)N1CCC(c2c(C(=O)NCC3CCN(C4CCCC4)C3)cnn2-c2cccc(Cl)c2)CC1 (stereo not drawn) | inconclusive: 20.6 µM [inhibitor, single point] | 
13 | CCCc1cnc2c(c1SCc1ccc(C(F)(F)F)cc1)c(=O)n(C)c(=O)n2C | inconclusive: 11.6 µM [inhibitor, partial curve] | 
14 | O=C(CSC1=Nc2ccccc2C2CC=NN12)Nc1ccc2c(c1)OCO2 (stereo not drawn) | active: 7.31 µM | 
15 | CN(C)S(=O)(=O)c1cccc(C(=O)Nc2cc(Cl)ccc2O)c1 | inconclusive: 29.1 µM [inhibitor, single point] | 
16 | CC(C)(Oc1ccc(Cl)cc1)C(=O)NCC(c1ccco1)N1CCCCC1 (stereo not drawn) | active: 20.6 µM | 
17 | N#CC1=C(Nc2ccccc2)SC=C(c2ccc(Br)cc2)N=C1N1CCOCC1 | inconclusive: 25.9 µM [inhibitor, single point] | 
18 | CCNC(=S)N(Cc1cc2c(C)ccc(C)c2[nH]c1=O)C1CCCC1 | inconclusive: 18.4 µM [inhibitor, single point] | 
19 | CN(C)S(=O)(=O)c1ccc(C(=O)Nc2ccc(-n3nncc3-c3ccccc3)cc2)cc1 | active: 20.6 µM | 
20 | COCCNc1ncnc2ccc(-c3ccccc3C)cc12 | active: 10.3 µM | 
21 | CCc1ccc(-c2cc(C(=O)O)c3ccccc3n2)s1 |  | inactive: -13.2%
22 | O=c1cc[nH]c2c1ccc1cccnc12 | inconclusive: 29.1 µM [inhibitor, single point] | 
23 | O=C(CCCOc1ccccc1)N1CCc2ccccc2C1 |  | inconclusive: -30.6% [inhibitor]

Row | SMILES | Potency | activity change, negative = growth inhibition
24 | Cn1ncc2c(NNC(=O)c3ccc(O)cc3)ncnc21 |  | inactive: -3.49%
25 | CCOC(=O)N1CCN(C2=Nc3cccc4cccc2c34)CC1 |  | inactive: -7.65%
26 | O=C(NCc1ccco1)c1cccnc1-c1nc2ccccc2s1 | active: 20.6 µM | 
27 | Cc1ccc(S(=O)(=O)Cc2ccc(C(=O)N3CCC(C)CC3)cc2)cc1 | inconclusive: 23.1 µM [inhibitor, single point] | 
28 | Cc1ccc(NCC(=O)Nc2ccc(Br)cc2)cc1F |  | inactive: -17%
29 | O=C1CSc2ccccc2N1Cc1ccc(F)cc1 | inconclusive: 14.6 µM [inhibitor, single point] | 
30 | CNC(=O)c1ccsc1NC(=O)c1ccc(S(=O)(=O)N2CCOCC2)cc1 | inconclusive: 20.6 µM [inhibitor, single point] | 
31 | CCCN(CCC)CCCNC(=S)Nc1ccc2nc3n(c(=O)c2c1)CCCCC3 | inconclusive: 29.1 µM [inhibitor, partial curve] | 
32 | CN(C)S(=O)(=O)N(CC(=O)Nc1ccc(S(=O)(=O)N2CCCC2)cc1)c1ccccc1 |  | inactive: -28.4%
33 | CCOc1cccc(C(=O)NC(=S)Nc2ccc(Cl)cc2C(=O)O)c1 | inconclusive: 29.1 µM [inhibitor, single point] | 
34 | CCCC(=O)N(CCN(Cc1ccccc1)C(=O)CCC)Cc1ccccc1 | inconclusive: 14.6 µM [inhibitor, partial curve] | 
35 | COC(=O)c1cc(O)c(O)c(O)c1 | inconclusive: 29.1 µM [inhibitor, single point] | 
36 | CC(C)Cn1c(N)c(C(=O)COC(=O)C2CCCN2C(=O)c2cccs2)c(=O)n(C)c1=O (stereo not drawn) | inconclusive: 11.6 µM [inhibitor, partial curve] | 
37 | Cc1cccc(N2CCN(C(=O)CCSCc3ccccc3F)CC2)c1C | inconclusive: 16.4 µM [inhibitor, single point] | 
38 | NC1=NC2(CCCCC2)N=C(Nc2ccc(Br)cc2)N1 | inconclusive: 25.9 µM [inhibitor, single point] | 
39 | CCCOc1ccc(N2CC(C(=O)Nc3ccccc3C(=O)NCc3ccco3)CC2=O)cc1 (stereo not drawn) | inconclusive: 11.2 µM [inhibitor, partial curve, poor fit] | 
40 | CC(Sc1nncs1)C(=O)Nc1ccc(S(=O)(=O)Nc2ncccn2)cc1 (stereo not drawn) |  | inactive: -6.51%
41 | CS(=O)(=O)N(CC(=O)Nc1ccc2c(c1)OCO2)Cc1ccc(Cl)cc1 | inconclusive: 16.4 µM [inhibitor, single point] | 
42 | CCN1C(=O)/C(=C/c2ccc(C)o2)N(C)C1=S |  | inactive: -4.36%
43 | O=C1c2ccccc2NC(c2ccc3c(c2)OCO3)N1O (stereo not drawn) | inconclusive: 29.1 µM [inhibitor, single point] | 
44 | Cc1cccc2c1NC(=O)C21N2CCCC2C(C(=O)c2ccc3ccccc3c2)C12C(=O)Nc1ccccc12 (stereo not drawn) | inconclusive: 18.4 µM [inhibitor, single point] | 
45 | COc1ccc(Cl)cc1S(=O)(=O)N(C)CC(=O)N1CCOCC1 |  | inactive: 18%
46 | Cc1ccc(N(Cc2cccs2)C(=O)COc2cccc(C)c2)cc1 | inconclusive: 18.4 µM [inhibitor, single point] | 

Row | SMILES | Potency | activity change, negative = growth inhibition
47 | C=CCNc1nc2c3ccccc3n(C(C)=O)c2s1 | inconclusive: 25.9 µM [inhibitor, single point] | 
48 | CCN1CCN(c2cc(C)c3cc(NC(=O)c4cc(Cl)ccc4OC)ccc3n2)CC1 | active: 4.61 µM | 
49 | C[C@@H]1CN([C@@H](C)CO)C(=O)c2cccc(NC(=O)c3nc4ccccc4s3)c2O[C@@H]1CN(C)CC1CC1 | inconclusive: 25.9 µM [inhibitor, single point] | 
50 | Cc1[nH]c(C)c(S(=O)(=O)NCCc2ccccc2)c1C(=O)N1CCCCC1 |  | inactive: -23.3%
51 | Cc1cc(C)n2nc(SCC(=O)Nc3ccc(S(=O)(=O)N(C)C)cc3)nc2n1 | inconclusive: 20.6 µM [inhibitor, single point] | 
52 | COc1ccc(/C=C2\CCCC3C2=NN(C(=O)c2scnc2C)C3c2ccc(OC)c(OC)c2)cc1OC (stereo not drawn) | inconclusive: 7.08 µM [inhibitor, partial curve] | 
53 | COc1ccccc1[C@H]1C(c2cccc(C)c2)=NN(c2ccccc2)[C@@H]1CO | inconclusive: 29.1 µM [inhibitor, single point] | 
54 | CCc1ccc(-c2csc(NC(=O)c3cccnc3)n2)cc1 | inconclusive: 18.4 µM [inhibitor, single point] | 
55 | Cc1onc(-c2ccccc2Cl)c1C(=O)Nc1ccccc1 | active: 11.6 µM | 
56 | Cc1cc(N2CCCC2)ccc1NC(=O)COc1cccc(C(F)(F)F)c1 | active: 8.2 µM | 
57 | CCc1nc2c(OCc3ccc(F)c(F)c3)cccn2c1N(C)C(=O)CC(C)C | inconclusive: 29.1 µM [inhibitor, single point] | 
58 | COc1ccc(S(=O)(=O)N2CCOCC2)cc1NC(=O)CSc1nnc2c(n1)[nH]c1ccccc12 | inconclusive: 29.1 µM [inhibitor, single point] | 
59 | COc1ccc(C2=NC(C)(C)N(CC(=O)Nc3ccc(F)c(F)c3)C2=O)cc1 | inconclusive: 29.1 µM [inhibitor, single point] | 
60 | COc1ccc(-c2cc(C(F)(F)F)n3nc(C(=O)NCCN4CCOCC4)cc3n2)cc1 | inconclusive: 29.1 µM [inhibitor, single point] | 
61 | Cc1nn2c(=O)cc(COC(=O)CNC(=O)c3ccc(F)cc3)nc2s1 |  | inactive: -0.0721%
62 | O=C(N=NC(=O)c1ccc2c(O)n(CC3CCCO3)c(O)c2c1)c1cccnc1 (stereo not drawn) |  | inactive: 11.6%
63 | C[C@@H]1CCCCO[C@@H](CN(C)S(=O)(=O)c2cccs2)[C@@H](C)CN([C@H](C)CO)C(=O)c2cc(NS(=O)(=O)c3ccccc3)ccc2O1 | active: 16.4 µM | 
64 | CCCCCCCCN1[C@@H](CC(=O)OCC)c2cc(F)ccc2S1(=O)=O | inconclusive: 25.1 µM [inhibitor, single point] and inconclusive: 20.6 µM [inhibitor, single point] | 
65 | O=C(Nc1ccn(Cc2ccccc2)n1)c1cccc(Cn2cc([N+](=O)[O-])cn2)c1 | inconclusive: 18.4 µM [inhibitor, single point] | 
66 | COC(=O)CN1C(=O)[C@H]2[C@@H](C3CC3)N3C(=O)CN(Cc4ccc(-c5ccccc5)cc4)C(=O)[C@@]3(Cc3ccccc3)[C@H]2C1=O | inconclusive: 20.6 µM [inhibitor, single point] | 
67 | CCOc1ccc(Nc2nc(N3CCCC3)nc(N3CCN(c4ccc(OC)cc4)CC3)n2)cc1 | inconclusive: 9.2 µM [inhibitor, partial curve] | 
68 | COc1c(C)cccc1C(=O)Nc1ccc(N2CCN(C(=O)c3ccccc3C)CC2)cc1 | active: 16.4 µM | 
